# Laboratory results published in a collection of fitness landscapes (doi:10.1016/j.celrep.2020.107928).
# The full ranking holds about 81,000 sequences; the median of “one-hybrid fitness for binding parS DNA” is about -0.17, and the highest 2% start at about 0.51. Some of the results follow.
# B1: Caulobacter ParB omega fusion; a variant is named by its letters at X, in order, B8GW30 (parent)
# chain: MESVVVGEPGMSEGRRGLGRGLSALLGEVDAAPAQAPGEQLGGSREAPIEILQRNPDQPRRTFREEDLEDLSNSIREKGVLQPILVRPSPDTAGEYQIVAGERAWRAAQRAGLKTVPIMVRELDDLAVLEIGIIENVQRADLNVLEEALSYKVLMEKFERTQENIAQTIGKSXSHVANXMRLLXLPDEVQSYLVSGELTAXHARAIAAAADPVALAKQIIEGGLSVRETEALARKAPNLSAGKSKGGRPPRVKDTDTQALESDLSSVLGLDVSIDHRGSTGTLTITYATLEQLDDLCNRLTRGI
# Variants of: B1
# Experiment: one-hybrid fitness for binding parS DNA (scaled: cognate 1, non-cognate 0); higher = stronger binding
# Details: with parS DNA site
# Summary of the method: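 Bacterial one-hybrid selection in E. coli USO rpoZ- hisB- pyrF- with a HIS3 reporter carrying the site 19 bp from the promoter, screening Caulobacter ParB libraries with four specificity codons randomised (NNS). Cells grew 48 hours at 37°C on M9-minus-histidine plus 0.1 mM IPTG and 5 mM 3-AT. Plasmids before and after selection were Illumina-sequenced, three replicate libraries pooled, and variants under 10 reads dropped. Fitness is the log change in variant-to-wild-type read ratio, rescaled to cognate 1, non-cognate 0.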
row,Variant,one-hybrid fitness for binding parS DNA
1,CALC,≤ 0.2
2,QKAK,≤ 0.2
3,VGSR,≤ 0.2
4,TDGS,≤ 0.2
5,VLRF,≤ 0.2
6,RPLI,≤ 0.2
7,DMRT,≤ 0.2
8,KKAD,≤ 0.2
9,QWKM,≤ 0.2
10,VKAL,≤ 0.2
11,PQLM,≤ 0.2
12,QMYV,≤ 0.2
13,WGDL,≤ 0.2
14,VLLC,≤ 0.2
15,LVCW,≤ 0.2
16,TKPA,≤ 0.2
17,ESVS,≤ 0.2
18,FTGS,≤ 0.2
19,GMVE,≤ 0.2
20,ARAL,≤ 0.2
21,MESM,≤ 0.2
22,RIYE,≤ 0.2
23,RGTP,≤ 0.2
24,YVMS,≤ 0.2

row,Variant,one-hybrid fitness for binding parS DNA
1,NCNA,≤ 0.2
2,RIKG,0.959
3,IHLG,≤ 0.2
4,WQKS,≤ 0.2
5,ETRY,≤ 0.2
6,DLPI,≤ 0.2
7,QVYP,≤ 0.2
8,VGQT,≤ 0.2
9,HHNS,≤ 0.2
10,VTRY,≤ 0.2
11,HPPM,≤ 0.2
12,RAMY,0.435
13,EINS,≤ 0.2
14,WGKV,≤ 0.2
15,CITC,≤ 0.2
16,RMGK,≤ 0.2
17,SCMM,≤ 0.2
18,CEPR,≤ 0.2
19,QCIE,≤ 0.2
20,QIYI,≤ 0.2
21,TVHP,≤ 0.2
22,KQES,≤ 0.2
23,MADI,≤ 0.2
24,RHQL,≤ 0.2

row,Variant,one-hybrid fitness for binding parS DNA
1,YRTE,≤ 0.2
2,WPVQ,≤ 0.2
3,LQVD,≤ 0.2
4,GDRW,≤ 0.2
5,NATG,≤ 0.2
6,CIPC,≤ 0.2
7,ILSC,≤ 0.2
8,GYTL,≤ 0.2
9,GHHC,≤ 0.2
10,LLRI,≤ 0.2
11,TCPA,≤ 0.2
12,NYFL,≤ 0.2
13,DLIT,≤ 0.2
14,QKEY,≤ 0.2
15,WNNR,≤ 0.2
16,KKNN,≤ 0.2
17,PYSL,≤ 0.2
18,LWYT,≤ 0.2
19,VMVG,≤ 0.2
20,PPPC,≤ 0.2
21,PGPE,≤ 0.2
22,TAWG,≤ 0.2
23,DVQS,≤ 0.2
24,TPLM,≤ 0.2

row,Variant,one-hybrid fitness for binding parS DNA
1,SDRR,≤ 0.2
2,HRHL,≤ 0.2
3,DQAT,≤ 0.2
4,TYGN,≤ 0.2
5,TGKV,≤ 0.2
6,QMWK,≤ 0.2
7,DSHL,≤ 0.2
8,LNIT,≤ 0.2
9,VMCV,≤ 0.2
10,QHKY,≤ 0.2
11,ELPD,≤ 0.2
12,KNTT,≤ 0.2
13,VFIC,≤ 0.2
14,RMDG,0.917
15,TQNT,≤ 0.2
16,RPDD,≤ 0.2
17,VVLS,≤ 0.2
18,AMIR,≤ 0.2
19,VNFE,≤ 0.2
20,AWTV,≤ 0.2
21,KQTT,≤ 0.2
22,HPFV,≤ 0.2
23,WDDY,≤ 0.2
24,WKRL,≤ 0.2

row,Variant,one-hybrid fitness for binding parS DNA
1,ALGM,≤ 0.2
2,QVGL,≤ 0.2
3,DFES,≤ 0.2
4,QNTN,≤ 0.2
5,WCVT,≤ 0.2
6,PTAK,≤ 0.2
7,WSWF,≤ 0.2
8,THES,≤ 0.2
9,ADGT,≤ 0.2
10,QLCP,≤ 0.2
11,NSTL,≤ 0.2
12,QQTL,≤ 0.2
13,SEKV,≤ 0.2
14,YNAR,≤ 0.2
15,HRTH,≤ 0.2
16,RCNP,≤ 0.2
17,ILHN,≤ 0.2
18,CHMY,≤ 0.2
19,SNEL,≤ 0.2
20,YQFG,≤ 0.2
21,YIRF,≤ 0.2
22,KYAS,≤ 0.2
23,CHVW,≤ 0.2
24,DKTT,≤ 0.2

row,Variant,one-hybrid fitness for binding parS DNA
1,LADW,≤ 0.2
2,AIVY,≤ 0.2
3,TGLP,≤ 0.2
4,MYMS,≤ 0.2
5,IKAT,≤ 0.2
6,GVRT,≤ 0.2
7,MSNI,≤ 0.2
8,INHC,≤ 0.2
9,SMRL,≤ 0.2
10,YTNS,≤ 0.2
11,PTMS,≤ 0.2
12,RKDD,≤ 0.2
13,HSES,≤ 0.2
14,DPHM,≤ 0.2
15,HALC,≤ 0.2
16,MFAS,≤ 0.2
17,RYRS,0.824
18,PAFS,≤ 0.2
19,KHER,≤ 0.2
20,LNDF,≤ 0.2
21,STTF,≤ 0.2
22,LTEG,≤ 0.2
23,LWGY,≤ 0.2
24,KMSC,≤ 0.2

row,Variant,one-hybrid fitness for binding parS DNA
1,SPLV,≤ 0.2
2,TLRM,≤ 0.2
3,RLEN,0.4
4,DSSC,≤ 0.2
5,WLYT,≤ 0.2
6,EWEG,≤ 0.2
7,PATV,≤ 0.2
8,MGKT,≤ 0.2
9,ECRT,≤ 0.2
10,PIHC,≤ 0.2
11,REAC,≤ 0.2
12,PQQL,≤ 0.2
13,PWNV,≤ 0.2
14,EHPG,≤ 0.2
15,FAQS,≤ 0.2
16,QVCH,≤ 0.2
17,QACI,≤ 0.2
18,SNPT,≤ 0.2
19,FIGG,≤ 0.2
20,SPNR,≤ 0.2
21,RENA,≤ 0.2
22,TEGT,≤ 0.2
23,AEWR,≤ 0.2
24,SSIV,≤ 0.2

row,Variant,one-hybrid fitness for binding parS DNA
1,RQMK,≤ 0.2
2,YKYC,≤ 0.2
3,SNMW,≤ 0.2
4,PVQE,≤ 0.2
5,RKSW,≤ 0.2
6,PLIP,≤ 0.2
7,RPGY,≤ 0.2
8,RWCI,≤ 0.2
9,CCRS,≤ 0.2
10,RPTP,≤ 0.2
11,YKMG,≤ 0.2
12,HCSR,≤ 0.2
13,PIRS,≤ 0.2
14,MSFS,≤ 0.2
15,ECVG,≤ 0.2
16,GEHG,≤ 0.2
17,LEHE,≤ 0.2
18,WAAR,≤ 0.2
19,MGRA,≤ 0.2
20,PHGR,≤ 0.2
21,AAES,≤ 0.2
22,PREM,≤ 0.2
23,ARHM,≤ 0.2
24,LYHT,≤ 0.2

row,Variant,one-hybrid fitness for binding parS DNA
1,KMWT,≤ 0.2
2,TPQT,≤ 0.2
3,LYWW,≤ 0.2
4,EDAT,≤ 0.2
5,TACW,≤ 0.2
6,EDYM,≤ 0.2
7,AGFR,≤ 0.2
8,TSME,≤ 0.2
9,HSDG,≤ 0.2
10,ISMH,≤ 0.2
11,VPVC,≤ 0.2
12,PITW,≤ 0.2
13,QDAE,≤ 0.2
14,IRDR,≤ 0.2
15,GELY,≤ 0.2
16,RSAN,0.426
17,CLAV,≤ 0.2
18,WDCT,≤ 0.2
19,RWVV,≤ 0.2
20,SDDH,≤ 0.2
21,QFSR,≤ 0.2
22,LNNV,≤ 0.2
23,QSKF,≤ 0.2
24,NPSF,≤ 0.2

row,Variant,one-hybrid fitness for binding parS DNA
1,CTSM,≤ 0.2
2,RMIR,≤ 0.2
3,LELR,≤ 0.2
4,QTPG,≤ 0.2
5,NRWG,≤ 0.2
6,ILAL,≤ 0.2
7,SEPL,≤ 0.2
8,YVQV,≤ 0.2
9,QDLL,≤ 0.2
10,VYGS,≤ 0.2
11,KMWY,≤ 0.2
12,NAYL,≤ 0.2
13,FNRW,≤ 0.2
14,RPTD,≤ 0.2
15,QKGR,≤ 0.2
16,TQVE,≤ 0.2
17,WGAG,≤ 0.2
18,AAAA,≤ 0.2
19,ARYR,≤ 0.2
20,TFDR,≤ 0.2
21,WKWG,≤ 0.2
22,ASPT,≤ 0.2
23,AQRS,≤ 0.2
24,CLTF,≤ 0.2

row,Variant,one-hybrid fitness for binding parS DNA
1,PNFW,≤ 0.2
2,MFHR,≤ 0.2
3,RIKD,≤ 0.2
4,QYCN,≤ 0.2
5,AADV,≤ 0.2
6,PWSY,≤ 0.2
7,HHMC,≤ 0.2
8,GDLS,≤ 0.2
9,QKYL,≤ 0.2
10,AQFR,≤ 0.2
11,LRVM,≤ 0.2
12,GDTY,≤ 0.2
13,QMCC,≤ 0.2
14,ITSQ,≤ 0.2
15,NINW,≤ 0.2
16,GSWA,≤ 0.2
17,YHHM,≤ 0.2
18,PIRE,≤ 0.2
19,CRVI,≤ 0.2
20,WTPC,≤ 0.2
21,TGTP,≤ 0.2
22,LKVG,≤ 0.2
23,ATDN,≤ 0.2
24,QENY,≤ 0.2

row,Variant,one-hybrid fitness for binding parS DNA
1,HMAM,≤ 0.2
2,TLQN,≤ 0.2
3,RIDR,≤ 0.2
4,DLFT,≤ 0.2
5,SPKM,≤ 0.2
6,TTMG,≤ 0.2
7,ILKH,≤ 0.2
8,NSFR,≤ 0.2
9,PLEG,≤ 0.2
10,GPIV,≤ 0.2
11,AGPI,≤ 0.2
12,VVPA,≤ 0.2
13,PMNG,≤ 0.2
14,RWWC,0.521
15,DLPA,≤ 0.2
16,KYLR,≤ 0.2
17,VCQY,≤ 0.2
18,GVIP,≤ 0.2
19,TSRF,≤ 0.2
20,AVHR,≤ 0.2
21,TQPK,≤ 0.2
22,FKTG,≤ 0.2
23,SCNR,≤ 0.2
24,PWCR,≤ 0.2

row,Variant,one-hybrid fitness for binding parS DNA
1,LLTL,≤ 0.2
2,PPQM,≤ 0.2
3,SIQN,≤ 0.2
4,CTRH,≤ 0.2
5,RCWK,0.252
6,GTTL,≤ 0.2
7,RESW,≤ 0.2
8,SAWC,≤ 0.2
9,VAGW,≤ 0.2
10,HLRF,≤ 0.2
11,GMLG,≤ 0.2
12,QYPT,≤ 0.2
13,HKFT,≤ 0.2
14,WNKG,≤ 0.2
15,HVCC,≤ 0.2
16,MMVT,≤ 0.2
17,WTHF,≤ 0.2
18,TVAI,≤ 0.2
